Reference: the supplement of paper PMC3334620
The full ranking holds about 33,000 sequences; the median of “E-score (-0.5 to 0.5)” is about -0.016, and the highest 2% start at about 0.32. The list shows a part of the results.

The sequences below were run against T1, Stp1 (UniProt B3LFK1) (assay: PBM E-score (8-mer binding enrichment) (E-score (-0.5 to 0.5)); higher = stronger / more preferred TF binding; most listed sequences are background and not binding sites). Settings: protein concentration: 200 nM; construct: GST-full length.
T1 sequence: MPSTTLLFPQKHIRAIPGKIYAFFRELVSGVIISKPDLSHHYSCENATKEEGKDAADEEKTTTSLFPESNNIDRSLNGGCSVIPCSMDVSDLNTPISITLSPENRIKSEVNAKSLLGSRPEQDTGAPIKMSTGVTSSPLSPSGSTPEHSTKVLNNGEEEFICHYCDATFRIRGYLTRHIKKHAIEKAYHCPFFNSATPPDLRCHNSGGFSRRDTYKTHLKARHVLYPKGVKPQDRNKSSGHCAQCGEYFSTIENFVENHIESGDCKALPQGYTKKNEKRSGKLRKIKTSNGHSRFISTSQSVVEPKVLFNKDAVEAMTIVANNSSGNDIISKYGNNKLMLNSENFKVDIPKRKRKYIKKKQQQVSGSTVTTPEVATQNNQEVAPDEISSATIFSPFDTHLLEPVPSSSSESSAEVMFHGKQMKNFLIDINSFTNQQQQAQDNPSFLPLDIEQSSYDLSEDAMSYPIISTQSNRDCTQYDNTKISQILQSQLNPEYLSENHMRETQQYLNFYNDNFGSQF
How it was run: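 Detection of bound protein used fluorescent anti-GST, with scans normalised by masliner. The proteins were GST-tagged yeast transcription factors applied at about 100-200 nM to universal all-10-mer Agilent arrays made double-stranded by primer extension. Each ungapped eight-base word, pooled with its reverse complement, was scored with an E-score from the Universal PBM Analysis Suite.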

Sequence | PBM E-score
AACACAGT | -0.0465
TCCCATAA | -0.102
GCAGAGGA | -0.0854
CGTTCAAG | 0.139
GGGCTGGA | -0.268
ACAGTGGC | -0.0323
AAAGCCTC | 0.204
AGGGAGTC | -0.296
AAGGTCGT | -0.166
GGATACCA | -0.0967
GAGAGTAC | -0.172
GATACCGA | -0.147
GCGCCGAC | 0.309
CCCTGCAC | -0.176
GCATTAGA | 0.0737
CTACGGAA | 0.0958
AACTTGAC | -0.0754
CCGGTGAA | 0.232
TATGCCAA | 0.0886
AGGTGGCA | 0.218
CGGAGCTA | -0.127
ATAAATCA | 0.144
AGTGGAGC | 0.0728
ATTAATAA | 0.122
ATCTCCGG | -0.0109

Sequence | PBM E-score
AACGAGCA | -0.037
ATCCTATG | -0.0492
GCTCCAAA | 0.0924
AACGTCTC | -0.13
CTACGCTA | -0.015
AGCAGGCC | -0.199
AATAGTCA | 0.0268
AATCATGG | -0.177
ATTTAAGG | 0.0537
TGAGGGAA | -0.179
CTGTGAGC | 0.136
GGAGGATA | -0.118
ATCTCGAA | 0.22
ATTTCTGG | 0.0235
CTAGTCTC | -0.179
ATAATAGC | 0.0729
CAACGCAC | 0.0556
AATGAGGT | -0.0797
CCCTACAC | -0.0256
CGTCATCA | -0.0189
TACACGTA | 0.0583
AAGGATCG | 0.0164
CCCACAAG | -0.111
CAAGGAGC | -0.0794
CACTTAGC | 0.0853

Sequence | PBM E-score
ACTTGTGG | -0.159
AAATTTTC | 0.0494
CCTGTTCA | -0.0825
AATTAATG | 0.21
CATGACTA | -0.0261
ACCTATCC | -0.0625
CCCCCCCC | -0.5
CCGGGGCC | -0.202
TCGAGACA | -0.08
CCCTGGGC | -0.217
CAAACTTC | 0.0557
AGGTACTA | 0.015
CCGTGTCA | 0.306
TCGACTAA | 0.0778
AAATGACA | -0.0414
ATTCCTGA | 0.0425
CGCGGAGA | 0.109
CTGCTACA | -0.00955
GTCCGATA | -0.101
CACGGACC | 0.163
AACCCTAG | -0.101
TGTCGCAA | 0.0986
CACCCCCC | -0.259
CCCCGGTA | -0.167
ACGGAGTC | -0.00675

Sequence | PBM E-score
AGTATCCG | 0.0313
ATATCCGA | 0.189
AAAACAGC | 0.0626
CGTCCAGC | -0.00247
GCATGAGC | 0.0557
ACACAGGA | -0.134
AAACGACC | -0.0604
AAACCTCA | -0.0665
ATTGTGGC | 0.0597
GAGCTGGC | -0.0991
GAATGAGC | -0.0395
GAGGACGC | -0.108
CCGTAGTC | -0.101
ACCCACTA | -0.0848
ACGTGAAA | 0.154
CGCCATTC | 0.156
ATCATGAT | 0.14
TAGGGTAA | 0.0204
CCTCCCCC | -0.416
CATCGAGG | -0.0929
AGTGCCCC | 0.057
GTGCTCAA | 0.115
GGTCATAA | -0.0644
AAGGCACA | 0.338
ACGTCAAG | -0.127

Sequence | PBM E-score
AAATGCCA | 0.248
CCGTGCAC | 0.254
AGAAAGTA | 0.104
GGCGCGAC | 0.36
ATATTCGA | -0.0655
ATTATTTA | 0.281
TCTCTCCA | -0.00126
TCCCAGAA | -0.106
ACACTGTA | 0.0157
CCTTACTA | -0.0363
CAAGGACC | -0.144
CATTACCA | 0.0358
AGGCGGGG | 0.023
ATCCTCCC | -0.304
AAGCGCAG | -0.177
ACGTGTAA | 0.0387
ACAGATAA | -0.0189
GATGTTAA | 0.102
CTCCGTTA | -0.0232
AATCAATC | 0.236
GTATGCGA | 0.119
TCGCCTCA | 0.281
CCCGAATC | -0.19
AGCGTACC | -0.115
CGCGGGCC | 0.141

Sequence | PBM E-score
GACGGGGA | -0.305
CAGATGCC | 0.0945
CCATTCAG | -0.0253
CGTGGAAC | 0.0411
ATTGTGGA | -0.14
ACGTGAAC | -0.222
TGATCCCA | -0.134
GCTTTGAA | 0.00312
GGTAACCA | -0.156
CGGAGTAC | -0.208
CACTACAG | -0.014
ATGTAGTC | -0.0289
AAAGGCTG | -0.102
CATCGGGG | -0.271
ACGTCAGG | -0.245
CGCACTTA | 0.125
TCGGTACA | -0.111
CACTTCTA | -0.0559
CTGATCAC | -0.165
AAGAACGA | 0.048
TAGTACAA | 0.0845
CCCGCAGG | -0.122
CCCGTGAG | -0.0263
AAAAGCCA | 0.226
GGATGGGA | -0.167

Sequence | PBM E-score
CATGGTAC | -0.0423
GCTTGGTA | -0.112
AGGTCCTA | -0.253
CCTGTGGA | -0.191
GCAAGATA | 0.156
ACGCTAAC | 0.0477
GCGACCGC | 0.0376
ATGCCGGC | 0.0928
GTGCTGGA | -0.156
GAGGTTTA | -0.0882
GTAATAAC | 0.0247
CAGGCACA | -0.259
CTAGATGA | -0.0339
AGAGGTGC | -0.13
ATCGGACC | -0.0999
GACGCCAC | 0.0288
TAGAACCA | -0.131
AAGGAAGC | -0.218
CCCCCAAC | -0.405
GTAGCAGA | 0.0625
ACCCCGCG | 0.0567
ACCTCAGT | -0.0378
AGTGAGTC | -0.187
GCCCTTCC | 0.0531
CAATTTGC | 0.00701

Sequence | PBM E-score
AAGCGTTA | -0.23
ATTTAGAG | 0.0639
GCTGGTCA | -0.159
ATATGCAG | -0.116
AACTGTCT | -0.237
CCGTTTAG | 0.28
ATGGTGGA | -0.243
CCTCAAAG | -0.176
AGCAGTGA | 0.134
AGGGTCGA | -0.24
ACCGGGGC | -0.0721
CACGGTGG | -0.186
GCGAAGTA | -0.0642
CTTCACAA | -0.0745
ATCGACAC | -0.144
ACGGTGAC | -0.0841
CCACGCTC | -0.157
ACAATGAG | -0.234
GACCGCGC | 0.123
ATTCGCTG | 0.00654
AACCGCTT | -0.109
ATCGGGAG | -0.167
CGAGAAAC | -0.00599
AAGCGGAC | 0.0592
AGACGGGA | -0.12

Sequence | PBM E-score
ATTCTCCA | 0.0478
ACTTGTCT | -0.0326
CCACGCCC | -0.188
CCCCCACA | -0.332
ACGTCGAT | 0.0713
ACTAACTC | -0.271
CTGATAAG | 0.129
ACACTTTA | -0.0763
CAATTAGC | 0.0542
CCGTCATA | 0.0738
ACGTTTGC | -0.0424
ACAGACAT | 0.0663
ACCAATCA | 0.0394
GTCTTTCA | 0.0147
AGGGCCCG | -0.152
TACCATGA | -0.172
GATAGTAC | -0.0487
ATCTTTCG | -0.0513
AACAGTGG | -0.126
